According to the RNAGym collection of RNA variant scans (doi:10.1093/nar/gkz1192):
Read counts are not given, so values of variants with three or more changes are uncertain.

B1: CPEB3 Ribozyme (parent)
chain: UAACAGGGGGCCACAGCAGAAGCGUUCACGUCGCAGCCCCUGUCAGAUUCUGGUGAAUCUGCGAAUUCUGCUGUAUAUCUC

Variants of: B1
Experiment: self-cleavage, relative activity (ratio to wild type); higher = more cleavage; in vitro, sequencing
Method in brief: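 Barcoded CPEB3 ribozyme mutants, produced by rounds of error-prone PCR, self-cleaved while being transcribed with T7 RNA polymerase for 5 hours at 37°C and during a subsequent 15 min DNase I step before EDTA was added. Sequencing of template-switched cDNA on Illumina gave cleaved and total reads, and DNA sequencing assigned barcodes to variants. Each variant's relative activity is its cleaved/total read fraction divided by the unmutated ribozyme's fraction, averaged across three batches. A variant needed a minimum of 5 reads.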

With UAACAGGGGGCCACAGCAGGAGCGUACACGUCGUAGCCCCUGUCAGGUUCUGGUGAAUCUGCGAGUUCUGCUGUAUAUCUC [A20G U26A C34U A47G A65G] as the variant, how does the self-cleavage read?
The self-cleavage was 0.09.

For UAACAGGGGGCCACAGCAGGAGCGUACACGUCGCAGCUCCUGUCAGAUUCCGGUAAAUCAGCGAAUUCUGCUGUAUAUCUC [A20G U26A C38U U51C G55A U60A], which self-cleavage is on record?
Its self-cleavage is 0.07.

Which self-cleavage does the source give for UAACAGGGGGCCACAGCAGGAGCGUACACGUCGCAGCCCCUGUCAGAUUCUGGUGAAUCUGCGAAUUCUGUUGUAUAUCUC [A20G U26A C71U] here?
Its self-cleavage is 0.28.

For UAACAGGGGGCCACAGCAGGAGCGUACACGUCGCAACCCCAGUCAGAUUCUGGUGAAUCUGCGAAUUCCGCCGUAUAUCUC [A20G U26A G36A U41A U69C U72C], which self-cleavage is on record?
Its self-cleavage is 0.07.

With UAACAGGGGGCCACAGCAGGAGCGUACACGCCACAGCCCCUGUCAGAUUCUGGGGAUUCUGCGAAUUCUGCUGUAUAUCUC [A20G U26A U31C G33A U54G A57U] as the variant, how does the self-cleavage read?
The self-cleavage was 0.06.

For UAACAGGGGGCCACAGCAGGAGCGUACACGCCGCAGCCCCUGUCAGAUUCUGGUGAAUCCGCGAAUUCUGCUUUAUAUCUC [A20G U26A U31C U60C G73U], which self-cleavage is on record?
The self-cleavage was 0.09.

With UAACAGGGGGCCACAGCAGGAGCGUACACGUCGCAGCCCCCGUCAGAUUCUGGUGAAUCUGCGAAUUCUGCUGUAUAUCUC [A20G U26A U41C] as the variant, how does the self-cleavage read?
The self-cleavage was 0.44.

Which self-cleavage does the source give for UAACAGGGGGCCACAGCAGGAGCGUACACGUCGCAGCCCCCGUCUGAUUCUGGUGAAUCUGCGAAUUCUGCUGUAUAUCUC [A20G U26A U41C A45U] here?
Its self-cleavage is 0.12.

For UAACAGGGGGCCACAGCAGGAGCGUACACGUCGCAGCCCCUGCCAGAUUCUGGUGAAUCUGCGGGUUCUGCCGUAUAUCUC [A20G U26A U43C A64G A65G U72C], which self-cleavage is on record?
The self-cleavage was 0.25.

With UAACAGGGGGCCACAGCAGGAGCGUACACGUCGCAGCCCCUGUCAGAUUCUGGCGAAUCUGCGAAUUCUGCUGUAUAUCUC [A20G U26A U54C] as the variant, how does the self-cleavage read?
The self-cleavage was 0.66.

With UAACAGGGGGCCACAGCAGGAGCGUACACGUCGCAGCCCCUGUCAGAUUCUGGUGAAUCUGCGAAUUCAGCUGUAUAUCUC [A20G U26A U69A] as the variant, how does the self-cleavage read?
Its self-cleavage is 0.18.

With UAACAGGGGGCCACAGCAGGAGCGUCCCCGUCGCAGCCCCUGUCAGAUUCUGAUGGAUCUGCGAAUUCUGCUGUAUAUCUC [A20G U26C A28C G53A A56G] as the variant, how does the self-cleavage read?
The self-cleavage was 0.17.

With UAACAGGGGGCCACAGCAGGAGCGUCCGCGUCGCAGCACCUGUCUGAUUCUGGUGAAUCUGCAAAUUCUGCUGUAUAUCUC [A20G U26C A28G C38A A45U G63A] as the variant, how does the self-cleavage read?
Its self-cleavage is 0.35.

Which self-cleavage does the source give for UAACAGGGGGCCACAGCAGGAGCGUCCGCGUCGCAGCCCCUGGCAGAUUCUGGUGAGUCUGCGUAUUCUGCUGUAUAUCUC [A20G U26C A28G U43G A57G A64U] here?
The self-cleavage was 0.06.

With UAACAGGGGGCCACAGCAGGAGCGUCCACGUCGCGGCCCCUGUCAGAUUCUGGCGAAUCUGCGAGUUCUGCUGUAUAUCUC [A20G U26C A35G U54C A65G] as the variant, how does the self-cleavage read?
The self-cleavage was 0.45.

For UAACAGGGGGCCACAGCAGGAGCGUCCACGUCGCUGCCCCUGUCAGGUUCUGGUGGAUCUGCGAAUUCUGCUGUACAUCUC [A20G U26C A35U A47G A56G U76C], which self-cleavage is on record?
The self-cleavage was 0.23.

With UAACAGGGGGCCACAGCAGGAGCGUCCACGUCGCAGCCCCUGUCGGAUUCUGGGGAAUCUGCGGAUUCUGCAGUAUUUCUC [A20G U26C A45G U54G A64G U72A A77U] as the variant, how does the self-cleavage read?
The self-cleavage was 0.08.

With UAACAGGGGGCCACAGCAGGAGCGUCCACGUCGCAGCCCCUGUCAGAUUCUGGUGAGUCUGCGAAUCCUGGUGUGUAUCUC [A20G U26C A57G U67C C71G A75G] as the variant, how does the self-cleavage read?
The self-cleavage was 0.07.

For UAACAGGGGGCCACAGCAGGAGCGUCAACGUCGCUGCCCCUGUCAGAUUCUGGUGAAUCUGCGAAUUCUGCUGUAUAUCUC [A20G U26C C27A A35U], which self-cleavage is on record?
The self-cleavage was 0.3.

For UAACAGGGGGCCACAGCAGGAGCGUCCAAGUCGCAGCCCCUGUCAGAUUCUGGUGAAUCUGCGGAUUCUGCUGUAUAUCUC [A20G U26C C29A A64G], which self-cleavage is on record?
The self-cleavage was 0.23.

With UAACAGGGGGCCACAGCAGGAGCGUCCACGUCGCAGUCCCUGUCAGAUUCUGGUGAAUCUGCGAAUUCUGCUGUAUUUCUC [A20G U26C C37U A77U] as the variant, how does the self-cleavage read?
The self-cleavage was 0.54.

With UAACAGGGGGCCACAGCAGGAGCGUCCACGUCGCAGUCCCUGUCAGAUUCUGGUGAACCUGCGGAUUCCGCCGUAUAUCUC [A20G U26C C37U U58C A64G U69C U72C] as the variant, how does the self-cleavage read?
Its self-cleavage is 0.09.

Which self-cleavage does the source give for UAACAGGGGGCCACAGCAGGAGCGUCCACGUCGCAGCCACUGUCGGAUUCUGGUGAAUCCGGGAAUUCCGCUGUAUAUCUC [A20G U26C C39A A45G U60C C62G U69C] here?
Its self-cleavage is 0.04.

For UAACAGGGGGCCACAGCAGGAGCGUCCACAUCGCAGCCCCUGUCAGAUUCUGGUGAAUCUGCGAAUUCUGCUGUAUAUCUC [A20G U26C G30A], which self-cleavage is on record?
The self-cleavage was 0.27.

Which self-cleavage does the source give for UAACAGGGGGCCACAGCAGGAGCGUCCACGUCGCAGCCCCUGUCACAUUCUGGUGAAUCUGCGAAUUCUGCUGUAUAUCUC [A20G U26C G46C] here?
Its self-cleavage is 0.17.

For UAACAGGGGGCCACAGCAGGAGCGUCCACGUCGCAGCCCCUGUCAGAUUCUAGUGAAUCUGCGAAUUCUGCUGUAUAUCUC [A20G U26C G52A], which self-cleavage is on record?
The self-cleavage was 0.22.

With UAACAGGGGGCCACAGCAGGAGCGUCCACGUCGCAGCCCCUGUCAGAUUCUGGUGAAUCUGCAGAUUCUGCCGUAUAUCUC [A20G U26C G63A A64G U72C] as the variant, how does the self-cleavage read?
Its self-cleavage is 0.07.

Which self-cleavage does the source give for UAACAGGGGGCCACAGCAGGAGCGUCCACGCAGCAGCCCCUGUCAGAUUCUGGUGAAUCUGCGAAUUCUGCUGUAUAUCUC [A20G U26C U31C C32A] here?
The self-cleavage was 0.21.

Which self-cleavage does the source give for UAACAGGGGGCCACAGCAGGAGCGUCCACGUCGCAGCCCCAGUCAGAUUCUGGGGAAUCUGCGAAUUCUGCUGUAUACCUC [A20G U26C U41A U54G U78C] here?
The self-cleavage was 0.1.

With UAACAGGGGGCCACAGCAGGAGCGUCCACGUCGCAGCCCCCGUCAGAUUCUGGUGAAUCUGCGAAUUCUGCUGUAUAUCUC [A20G U26C U41C] as the variant, how does the self-cleavage read?
The self-cleavage was 0.41.

Which self-cleavage does the source give for UAACAGGGGGCCACAGCAGGAGCGUCCACGUCGCAGCCCCGGCCAGAUUCUGGUGAAUCUGCGAAUUCAGCAGUAUAUCCC [A20G U26C U41G U43C U69A U72A U80C] here?
The self-cleavage was 0.16.

Which self-cleavage does the source give for UAACAGGGGGCCACAGCAGGAGCGUCCACGUCGCAGCCCCUGACAGAUUCUGGUGAAUCUGCGAAUUCUGCUGUAUAUCUC [A20G U26C U43A] here?
Its self-cleavage is 0.33.

For UAACAGGGGGCCACAGCAGGAGCGUCCACGUCGCAGCCCCUGCCAGAUUCUGGUGAAUCUGCGAAUUCUGCUGUAUAUCUU [A20G U26C U43C C81U], which self-cleavage is on record?
The self-cleavage was 0.42.

With UAACAGGGGGCCACAGCAGGAGCGUCCACGUCGCAGCCCCUGUCAGAUCCUGGUGAAUCUGCGAAUUCUGCUGUAUAUCUC [A20G U26C U49C] as the variant, how does the self-cleavage read?
Its self-cleavage is 0.3.
